This is an account of results in the supplement of paper PMC12632987.

T1: TRAF2, Q12933
T1 chain: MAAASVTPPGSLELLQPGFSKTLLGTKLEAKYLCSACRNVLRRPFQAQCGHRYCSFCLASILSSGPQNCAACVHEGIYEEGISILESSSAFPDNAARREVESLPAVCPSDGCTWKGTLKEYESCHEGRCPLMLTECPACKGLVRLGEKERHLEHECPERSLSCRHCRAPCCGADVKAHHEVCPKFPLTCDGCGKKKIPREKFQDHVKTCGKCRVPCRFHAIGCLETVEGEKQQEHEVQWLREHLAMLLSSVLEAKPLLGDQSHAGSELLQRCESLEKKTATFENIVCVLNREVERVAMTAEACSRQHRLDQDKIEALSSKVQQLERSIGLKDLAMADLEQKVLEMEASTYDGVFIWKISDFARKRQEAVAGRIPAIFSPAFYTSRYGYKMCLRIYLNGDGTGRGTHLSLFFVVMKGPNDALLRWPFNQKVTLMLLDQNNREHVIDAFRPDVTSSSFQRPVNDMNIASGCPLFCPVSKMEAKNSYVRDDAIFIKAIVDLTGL

B1: traf2_out_18_167_1844 (protein)
chain: EEEIEERRRELSDRLVDLSAVRREALRALQALDTDPSAVPAELAALRAEAARVPELQPLVDAAEAALEAGDRAALRAELERLIAEAGRLMQEAYKELEAL
B2: traf2_out_18_3_1897 (protein)
chain: KEAELKEISEKIDEIIDEVTAKAREVLDWIAANHPEVKERVDALRADLDAGAGPFGILEALAELLKEAGDEEKAKEVEDFLKEKKKELQELVDKYEELRA
B3: traf2_out_5_189_2326 (protein)
chain: SEKEKEDEELRKKAKELSEEARKLLKEAKEKGLSYEEIEEKFLEYAKTLSLEDAQLFMGIMYSILKGEALANNDEELLKFAENYRKRSKELIEKRRKELA
B4: traf2_out_20_3_2197 (protein)
chain: SPLEEELKKELEKAIKLLKEAAKLADPETAKKLEELIKKIKESESLSISDQLVVLSEVRREVLLLAEEAKKEGKEELAKVLEKAAEELNKAMNLLMKMLE
B5: traf2_out_1_156_897 (protein)
chain: MTDEEKQAAIHERLKNPEYRRAFVDAALTRRDLRERAEELRKEGGDEEVIKRLEEKAEEIHKAMNEFLSSEPEELEKKLEELKEKIKEGKEALKEAEKER
B6: traf2_out_15_48_1355 (protein)
chain: STAALRATAREVNDRIEATQAAVAARLRALLPKLPPENRPLAQAAIDLAGNNGSISDVIALLDELAKKVSPELRAELTALRDELLATRREGSRLINETLA
B7: traf2_out_17_178_1706 (protein)
chain: TKEEARKRISEATDRMIDLAEEAAARLLEIAEREGSLSPEELAELRRARRLGSARTTLALMDRAIPKSRSAAEVTALRDRFEAEYARLAKEIAEALKKYE
B8: traf2_out_5_63_2340 (protein)
chain: SEREELTELAREADRLVREMLEAAKAGDEERVDALLDEAVADPELARLVIGILKAEERAYRLSGDREEDAEIARELRDRLEARAAAREAAAAAAAAAAAA
B9: traf2_out_8_15_2555 (protein)
chain: SVEENAKKLVEKLEAASDGDKNTLANLLIGEIKAHVRLAEILLEEGKIEEALNTIKYTRAYIKEALKRAEELGLPKLEELKKAAEEAEKRLEEIEKRIKE
B10: traf2_out_20_3_2116 (protein)
chain: EELEKELEKELEKALKLLEEAAKLADKETAKKLKELAERLEKSKSLSYSDRLVVVSEIRREVLKLRQEAEAKGDEKLAKVLEKAAEELNRAAGLLMKIIE
B11: traf2_out_13_169_1028 (protein)
chain: EEIRKETEELLKKSLERYLKEIEKKIKELKKKGTELYKEIAKVAEEILELIKELYKKGELYEATGFARRLLSILELAETDPEKALKLLKELLEEAKKELK
B12: traf2_out_11_155_677 (protein)
chain: EKKREINNALVDEMAAIDDATRAALDAIVDAAAAAHPEHAAALRAARDATRPYPGSSRGRALAALFRELGLEDYAAQVEALLAAAQKEKNAALKAHEAKL
B13: traf2_out_20_38_2038 (protein)
chain: SEEEEEEERLERLVEVANAALDRYEARIAALQAEGKSVAEIAEWAKEEIRRILGEAGLEEEAEELIAQVRTVENRPDALRLIARILARAEALAYQKELQK
B14: traf2_out_12_187_963 (protein)
chain: SVEEELLKAAKAGVKRAIKELEKAAPKDERFKKLLEKLKELEKLYEKDPSIASDLLVASSAILRAVRLFEEGLPEEEIEKAIEEAEKILEEAIKEAKKLE
B15: traf2_out_18_167_1870 (protein)
chain: SEELDKKYEELTDKLVEKSTIRRHLLEILELLKESEEKAREALKKAVEEYPDSEVLKEALEVFETKSLEEFRAFLESKAEELQKEANKYYKELEELEKEK
B16: traf2_out_6_166_2469 (protein)
chain: DEELLKRVREIVEELGKYEPEIVIEAFERLAERRSDRRALMARQLASGVRQGQKAGLDVATIISAFVDGLIALGVPIEEILELLEEVLEIARELAAERAR
B17: traf2_out_9_108_2600 (protein)
chain: MTPEELADAAVDRVVGTVEARVPEVQFSPEQREAIRRNTLRVVRLSEITNETTITSYVAAEVLLAAADLPDEVLARIADVLIELDPATESTVRRTLSLLK
B18: traf2_out_12_187_946 (protein)
chain: SVQEELIEAAKAGLKRAIEALKKIAPTDEEAKRFLEKLEKLKKLMEKHPELAADTLVAASAVLRYVRLVEAGAPKEEIEKAKKEAEKILEEVLKKAEELA
B19: traf2_out_14_149_1239 (protein)
chain: AHEAELYKAAAELAKKAAEALKEVLKLLEEGKVEEAKKLLKETIKELKEEGKKHGISISIIYELEHILKLLDKDVEKAKKAAKEALKRAKDRAEAFASLA
B20: traf2_out_3_89_2292 (protein)
chain: SEERERKIRLARERAERYARGFEKSARRVAKEMLKEGYSLETLRGVLEAARTALVEVFREELRELGLSEEDIRELVEELERRLREIVEKVLEEAEKKRKE
B21: traf2_out_17_178_1737 (protein)
chain: TKEELLKKISEYADKRLDTNRDAMARLRAIAEAEGVLTPELAARLDAAARNANLYHLEEVFAEVRALVSSKEEVTALEERTVAELRRLNKEIQEAVDKLE
B22: traf2_out_6_166_2462 (protein)
chain: SEEIREEIRKIIEELSKYPVEVILEAFDRVAEEVDERSARIARQARSAVRQAQKLGLDVATVLSAFVDGLIALGVPEEELLELYKKILEKAKEIAKEKEE
B23: traf2_out_16_62_1467 (protein)
chain: EEKKKELEKKADELVDAAQELRDTVITFRSGGDREAALARLAELAKKYGPLMQALLDALRAALADPARREEYLAEADDLAVEARTRLVKEALELEKKAKE
B24: traf2_out_11_104_635 (protein)
chain: LTREQAREFNDFAMAQRDKAAAIAAKLAAELKALGETEAAAKVEAALAHPGAGISTFRNLFEDLKPTLSPEAAAKADAAIAELAALQKAVSDKLNELEKK
B25: traf2_out_6_166_2463 (protein)
chain: SEETRAEIRKIIEELSKYPVEVILEAFDEVAKEVDPESARIARQMRSAVRQAQKLGLDVATVLSAFVDGLIALGVPEERLLELLKKVLKKAKEIAKEKEE
B26: traf2_out_11_79_931 (protein)
chain: SEKRKELEELIKKALKLVEELIKKLKEGNISEEEFAKTIEEILELLQRAMQLALELGLSDVLVLLSEARRHVLLSRTRNLEELEKAAKYLKEALKELEKE
B27: traf2_out_18_3_1893 (protein)
chain: SEEKRKEASERLDKIVDEVKAYALKVADEIEAEHPEVAEEVAAIRELVEAGRNPFGGLEALAEIAKRLGLEEKAKEIEEFLREKRKEAQKAVEEMEKLIK
B28: traf2_out_14_166_1280 (protein)
chain: MTPEEIARIREIVDKLEPLNEKAVAEARKIIEKNREKLSPEQLAELERLLEIAERNIGSTAINAFREMAKIFKKAGLEEAAKEFEKLAEELEKELSKLNK
B29: traf2_out_11_169_774 (protein)
chain: AEAEKNRKINDFALELNDKAKEELKKHALALAKEAGLDVAEVEKIFEENKNKSLSAVAAALIEYFRSQGKEEAAAAIEAKYDELKDKINKESSAFIKSLE

The full ranking holds about 1,800 sequences; the median of “median log2 fold change of GCK-ALFA target abundance (FLAG IP / Myc IP barcode read proportion)” is about 0.14, and the lowest 2% start at about -0.84. The list shows a part of the results.

In the test the target is T1, TRAF2, Q12933. Nature of the test: median log2 fold change of GCK-ALFA target abundance (FLAG IP / Myc IP barcode read proportion) (log2 ratio); each designed protein is fused to an ALFA-tag nanobody in HEK293 cells to bring the named protein to FLAG-tagged glucokinase (GCK); Myc marks an untargeted standard; higher = target protein stabilised (more abundant). The note with it: target protein: 3xFLAG-MCP-GCK-ALFA reporter; HEK293 landing pad (RPLP). The method, boiled down: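 An ALFA-nanobody-fused binder library was recombined into HEK293 landing-pad cells and induced with 2 μg mL^−1 doxycycline. Cells were transfected with a plasmid expressing a FLAG-tagged target and a Myc-tagged standard. After 48 h, lysates underwent anti-FLAG and anti-Myc immunoprecipitation, and circular RNA barcodes were reverse transcribed, amplified and sequenced. Target abundance is the per-binder median log2 ratio of FLAG to Myc barcode read proportions. Barcodes needed ≥10^−7 proportion in both replicates, binders ≥3 barcodes per replicate, and a 10^−6 pseudocount was added; the two replicates were pooled.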
For B1, the “median log2 fold change” value was found to be 0.223.

In the case of B2, the “median log2 fold change” value was determined as 0.44.

On to B3, for which the “median log2 fold change” value is 0.318.

On to B4, for which the “median log2 fold change” value turned out to be 0.133.

Consider B5, for which the “median log2 fold change” value is -0.051.

As to B6, the “median log2 fold change” value stood at 0.179.

Regarding B7, the “median log2 fold change” value is -0.21.

In the case of B8, the “median log2 fold change” value is -0.0288.

Regarding B9, the “median log2 fold change” value was 0.147.

Turning to B10, the “median log2 fold change” value is 0.229.

Turning to B11, the “median log2 fold change” value was -0.0793.

For the molecule B12, the “median log2 fold change” value was -0.00384.

Consider B13, for which the “median log2 fold change” value is -1.39.

For the molecule B14, the “median log2 fold change” value was determined as 0.0785.

As to B15, the “median log2 fold change” value worked out at 0.185.

Consider B16, for which the “median log2 fold change” value was -0.165.

For B17, the “median log2 fold change” value was determined as 0.0855.

Consider B18, for which the “median log2 fold change” value was 0.171.

On to B19, for which the “median log2 fold change” value worked out at 0.182.

Consider B20, for which the “median log2 fold change” value was -1.24.

Regarding B21, the “median log2 fold change” value came to 0.124.

Consider B22, for which the “median log2 fold change” value was -0.374.

Turning to B23, the “median log2 fold change” value came to 0.0511.

B24: the “median log2 fold change” value worked out at 0.31.

Take B25: the “median log2 fold change” value was -0.176.

Regarding B26, the “median log2 fold change” value was determined as 0.265.

On to B27, for which the “median log2 fold change” value came to 0.281.

Take B28: the “median log2 fold change” value amounted to 0.218.

As to B29, the “median log2 fold change” value came out at 0.234.
